# Laboratory results from the supplement of paper PMC3334620.
# Whole data set: some 33,000 sequences, median “E-score (-0.5 to 0.5)” near -0.032, cut for the highest 2% near 0.36. The list shows a part of the results.
# Target: T1, Sko1 (UniProt Q02100)
# T1 sequence: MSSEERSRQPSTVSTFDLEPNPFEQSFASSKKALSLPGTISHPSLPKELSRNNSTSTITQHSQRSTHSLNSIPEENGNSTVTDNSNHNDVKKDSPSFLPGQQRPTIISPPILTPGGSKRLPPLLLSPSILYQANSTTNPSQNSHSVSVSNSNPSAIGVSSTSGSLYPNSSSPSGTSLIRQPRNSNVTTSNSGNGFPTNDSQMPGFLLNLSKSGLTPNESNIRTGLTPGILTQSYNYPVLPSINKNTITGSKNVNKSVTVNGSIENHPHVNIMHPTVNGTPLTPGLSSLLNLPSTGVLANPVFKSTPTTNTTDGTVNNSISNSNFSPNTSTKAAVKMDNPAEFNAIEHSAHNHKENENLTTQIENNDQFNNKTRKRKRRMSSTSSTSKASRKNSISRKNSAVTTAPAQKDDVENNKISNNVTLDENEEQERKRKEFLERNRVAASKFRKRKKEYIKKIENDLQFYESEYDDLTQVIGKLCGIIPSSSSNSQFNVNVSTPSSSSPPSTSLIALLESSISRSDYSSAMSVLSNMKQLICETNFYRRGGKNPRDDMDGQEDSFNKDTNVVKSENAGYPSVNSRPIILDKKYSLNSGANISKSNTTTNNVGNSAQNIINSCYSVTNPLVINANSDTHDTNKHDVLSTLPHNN
# Assay: PBM E-score (8-mer binding enrichment) (E-score (-0.5 to 0.5)); higher = stronger / more preferred TF binding; most listed sequences are background and not binding sites
# Settings: protein concentration: 200 nM; construct: GST-full length
# Procedure, shortened: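 Yeast transcription factors, full-length or as DNA-binding domains, were expressed with a GST tag using PURExpress in vitro transcription/translation. At about 100-200 nM they were applied to universal all-10-mer Agilent arrays, double-stranded by primer extension on fresh or once-stripped slides. Fluorescent anti-GST detected bound protein, and masliner normalised the scans. E-scores for ungapped eight-base words, pooled with reverse complements, came from the Universal PBM Analysis Suite.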
row,Sequence,PBM E-score
1,AGTCAAGA,-0.102
2,GTAGAAAC,0.231
3,ATTTGCTA,0.129
4,AAAATTTT,0.101
5,AACCGTAG,-0.229
6,CGAAAAAA,0.233
7,CTTACCTC,-0.167
8,ACGCTGCG,0.0452
9,ATCCCAGC,-0.172
10,CGCTGCAG,-0.14
11,TCAGAGGA,-0.106
12,AAGTAGTC,0.0187
13,CAAGGCCG,-0.188
14,GATGTTAC,0.282
15,AGCCACTC,-0.253
16,GGCATAGA,-0.0476
17,CGTCCCTC,-0.109
18,CCGTTTCC,-0.2
19,AAGTGGCT,-0.08
20,GCAGACTA,-0.155
21,GGGATGGA,-0.123
22,TAACGTGA,0.274
23,CCGAAAGC,-0.302
24,CATGTTCG,-0.0625
25,GCATATCA,0.104

row,Sequence,PBM E-score
1,GCCTTTCC,-0.208
2,GGAAACCC,-0.159
3,GCGTTAAA,0.00152
4,AAACCAAT,0.0284
5,CAGCTAAA,0.0861
6,CAACATGA,0.181
7,AGCAGTAT,-0.118
8,AACGTATT,0.434
9,GGGGAGAC,-0.304
10,CTTCACGC,0.135
11,CTCCCGAA,-0.2
12,ATCCACTA,-0.0731
13,CACAGTGC,-0.182
14,AACTCAGA,0.0435
15,AAAATGCA,-0.182
16,CCTTTCCG,-0.344
17,AACGTGAT,0.333
18,CCATGGCG,0.14
19,CCGATTGA,-0.0362
20,CCAAAATC,0.0792
21,AAATTTTA,0.145
22,GCGCCACA,-0.00247
23,AGACGCCC,-0.334
24,ATGTGCCA,-0.087
25,AATTACAG,0.113

row,Sequence,PBM E-score
1,CCTATCCC,-0.103
2,CTTAAAGC,0.111
3,ATCCTGAG,-0.0175
4,CCACTGGA,-0.0322
5,TAAAGGGA,-0.174
6,AGATACGG,-0.0609
7,AAGTCCGA,-0.2
8,GATATAGC,0.0879
9,CAATCGAA,0.115
10,CAAGCCCA,-0.0739
11,TAGAGGCA,-0.0989
12,GTTTCTCA,0.039
13,AACTGGTG,-0.118
14,CACCATCA,0.0665
15,AAGCTGGA,-0.179
16,CTCATGGA,-0.0682
17,ATCCAATG,-0.0792
18,AAGAGACC,-0.14
19,GGGATGTA,-0.0517
20,GGGGAAAC,-0.124
21,GTATTGAC,0.171
22,ACGACCGA,0.0721
23,GACACTCC,0.0265
24,CCAGGAGC,-0.294
25,GACACATC,0.0719

row,Sequence,PBM E-score
1,AAGAGCCA,-0.055
2,CCTTTTAA,-0.0185
3,CTGCGATA,-0.029
4,CAAGCCGC,-0.343
5,ATTGCATG,0.138
6,GCTTTGTA,0.11
7,CCCTGCCC,-0.263
8,ACTTTGAG,-0.019
9,AGTAAATG,0.072
10,AACGATCC,-0.229
11,ACGGTACA,-0.095
12,CAGTCCTC,-0.279
13,ATCCCGTC,-0.00164
14,AATGGTCG,-0.165
15,AAGGGGGT,-0.233
16,TCATGAGA,0.211
17,CAAAGGAG,-0.108
18,CATGACGA,0.463
19,ATAAAGAG,0.0845
20,AAACGTGT,0.288
21,GACGGCCA,-0.3
22,GCGCCGTA,0.0251
23,CACTGATG,0.0771
24,ATAAGTCA,0.0807
25,ACTTATAA,0.123

row,Sequence,PBM E-score
1,TCTGAGAA,-0.0207
2,CAAGCCCG,-0.146
3,ATCGCGAG,0.0864
4,AGTAGCAG,-0.0686
5,GAAGTTAC,0.0658
6,CCAATACA,-0.00684
7,GATTGTAC,0.0187
8,TACCAGCA,0.044
9,ATCATTCG,0.234
10,CACCATAA,0.107
11,GGGAGCAC,-0.174
12,GTATTTTA,0.278
13,AGGTGTGG,-0.289
14,ACCTGTGA,0.115
15,GTCTAGGA,0.0381
16,AGATGGCG,0.136
17,ACGCAGTA,0.218
18,GGATGTCA,0.097
19,CCGTGAGA,-0.184
20,CTCTGCTA,-0.23
21,ATGCTCAA,-0.108
22,CACGTTTC,0.155
23,ATCACTGG,0.0306
24,ATCTTGCG,0.0317
25,GGACACAA,-0.09

row,Sequence,PBM E-score
1,CAGTCGCG,-0.125
2,CCTACCAC,-0.164
3,ATAGCGGG,-0.0716
4,CATCATAG,0.361
5,ATGGGAAC,-0.145
6,CCCTATCG,-0.21
7,ATTCCGAA,-0.00997
8,ACTTAGTC,-0.15
9,CACGGAAC,0.091
10,CGTCCTTC,0.176
11,TCTAGCAA,-0.054
12,CGTATAGA,0.311
13,AGAAAGGC,-0.024
14,GCATCTAA,-0.0199
15,ACTTAAAT,0.0342
16,ACTGTAAG,0.137
17,GTGTTAAC,0.149
18,TCGTAGCA,0.217
19,CGCCCACC,-0.112
20,TATAGTGA,0.102
21,GGAGAGAC,-0.272
22,GCCCTACA,-0.221
23,ACTTAGAC,0.213
24,ATAAAGAT,0.215
25,AGCTTGTA,-0.0377

row,Sequence,PBM E-score
1,CTATGCGC,0.0382
2,AGCTCCTA,-0.231
3,TCTCGCAA,-0.114
4,GAGCATCA,-0.114
5,GAGGGCTA,-0.183
6,TCTGATCA,0.0333
7,CAACCTTC,-0.0611
8,AGTAAGCA,-0.0305
9,GCTTTTCC,-0.0604
10,ACTTTGAT,0.0376
11,GAGTGTTA,0.0704
12,AAAGTACA,0.175
13,AGCCGTCC,-0.129
14,ACATCCAC,0.0782
15,GGTGCTGA,-0.195
16,AAAAATAG,0.0997
17,AATGGTAC,0.0378
18,CGGCAAGA,-0.0449
19,ACGGTGCT,-0.193
20,CCGGGTCG,-0.0548
21,GGCACTAA,-0.0862
22,ACCGGATG,-0.166
